Structures are written as SMILES. About 6,900 (2%) of roughly 340,000 compounds were called active. Rule as the data show it: active = inhibition above about 30%; inactive = below that, where a call was filed. The entries are a selection whose mix differs from that of the whole data set. Where no call is shown, the source filed none.

The test concerns the target D(2) dopamine receptor (Homo sapiens) (UniProt P14416). The test is described as follows: HTS Assay for Allosteric Antagonists of the Human D2 Dopamine Receptor: Primary Screen for Antagonists. Also: 0% is about no effect. The following applies: HEK293 TREx D2 cells, calcium flux, dopamine EC80; at 10 µM; stronger effect = higher value. The gist of the method: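 Calcium flux kinetic readout in an inducible HEK293 TREx D2 line plated overnight at 30 C. After 180 s compound exposure, an EC80 dopamine challenge follows with another 180 s kinetic read to detect antagonism.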
Sequence of UniProt P14416 (P14416 whole entry, looked up): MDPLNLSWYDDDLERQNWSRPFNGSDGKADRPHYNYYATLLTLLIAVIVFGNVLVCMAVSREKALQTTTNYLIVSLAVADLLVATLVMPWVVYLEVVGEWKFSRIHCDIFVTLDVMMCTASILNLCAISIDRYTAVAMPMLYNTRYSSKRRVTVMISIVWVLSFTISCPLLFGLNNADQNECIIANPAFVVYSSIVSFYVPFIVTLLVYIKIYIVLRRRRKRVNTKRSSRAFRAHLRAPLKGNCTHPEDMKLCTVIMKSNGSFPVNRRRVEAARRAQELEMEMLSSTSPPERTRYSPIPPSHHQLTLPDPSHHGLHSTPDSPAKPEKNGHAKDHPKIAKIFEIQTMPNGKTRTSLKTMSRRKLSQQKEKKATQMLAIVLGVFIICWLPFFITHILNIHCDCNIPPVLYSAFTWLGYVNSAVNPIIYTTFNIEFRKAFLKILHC
(Calcium flux is commonly read through the fluorescence of an indicator in the cells.)
As for `Cc1ccc2nc(-c3cc(NC(=O)/C=C/c4ccccc4)ccc3Cl)oc2c1`, the inhibition is -1.98%.

Consider `CCOc1ccc(-c2nnc(SCC(=O)NCCc3ccc(OC)c(OC)c3)nc2-c2ccc(OCC)cc2)cc1`, for which the inhibition is 16.2%.

As to `O=C(c1cccc(Cl)c1)N1CCN(CCc2ccncc2)CC1`, the inhibition was -6.82%.

In the case of `COc1cc(Cl)c(C)cc1NC(=O)c1cn(C2CCCC2)c(=O)c2c1c1ccccc1n2C`, the inhibition was 2.67%.

For `CCOc1ccccc1NC(=O)Cn1c(=O)n(-c2ccc(F)cc2)c(=O)c2sc3ccccc3c21`, the inhibition is -5.59%.

Consider `COc1ccccc1C1SCCN1S(=O)(=O)c1cccc(C(F)(F)F)c1` (stereo unspecified), for which the inhibition was active: 47.4%.

In the case of `COc1ccc(CCNC(=O)CCCn2c(=O)c3ccccc3n(CC(=O)Nc3cc(Cl)ccc3C)c2=O)cc1OC`, the inhibition was 20.3%.

Consider `Cn1c(NCCO)nc2c(c1=O)C1(CCCCC1)Cc1ccccc1-2`, for which the inhibition is active: 67.7%.

Take `CCOC(=O)c1c(NC(=O)COc2cc(C)ccc2C(C)C)sc(C)c1C`: the inhibition was -5.78%.

On to `CCOc1cccc(C(c2c(C)n(C)n(-c3ccccc3)c2=O)c2c(C)n(C)n(-c3ccccc3)c2=O)c1OC`, for which the inhibition worked out at 4.46%.

For the molecule `COCCNCC1C(Oc2ccc(Cl)cc2)C(=O)N1c1ccccc1C` (stereo unspecified), the inhibition was active: 50.4%.

For `Cc1ccc(CSCC(=O)N2CCN(c3ccccc3F)CC2)cc1`, the inhibition was -23.4%.

For `CCn1cc(CCC(=O)NCc2ccccc2OC)c2ccccc21`, the inhibition stood at 11.4%.

As to `Cc1ccc(S(=O)(=O)CC(=O)Nc2sc3c(c2C#N)CCCC3)cc1`, the inhibition was -25.3%.

As to `CC1=C(C(=O)Nc2ccccc2)C(c2cccnc2)n2nc(SCc3ccccc3Cl)nc2N1` (stereo unspecified), the inhibition is -8.69%.

In the case of `CCOC(=O)Cn1c(=O)n(C2CCCCC2)c2nc(-c3cccc(F)c3)nc(C(N)=O)c21`, the inhibition is 15.9%.

Regarding `Cc1ccc(S(=O)(=O)c2cc3cc(C(=O)O)ccc3oc2=O)cc1`, the inhibition came to 26.8%.

As to `CCCN(CCC)CCCNC(=O)C1CCN(S(=O)(=O)CC)CC1`, the inhibition was 11.5%.

`COc1ccc(C)c2sc(N(Cc3cccnc3)C(=O)C3CCCCC3)nc12`: the inhibition was -19.6%.

On to `CCCCCOc1c(Cl)cc(C(=O)N(Cc2ccc(C)o2)C2CCS(=O)(=O)C2)cc1Cl` (stereo unspecified), for which the inhibition worked out at 5.51%.

As to `CCOC(=O)c1ccc(N2C(=O)c3n[nH]c(-c4ccco4)c3C2c2ccc(O)cc2)cc1` (stereo unspecified), the inhibition was -6.11%.

Regarding `CCCn1cc(S(=O)(=O)c2ccccc2)c(=O)c2cc(F)c(N3CCCC(C)C3)cc21` (stereo unspecified), the inhibition was 7.55%.

As to `COc1ccc(C)cc1NC(=O)c1c(C)oc2ncn(CC(C)C)c(=O)c12`, the inhibition is -4.54%.

Turning to `Cc1c(C)n(C)c2ccc(C(=O)NCCCN3CCCCC3C)cc12` (stereo unspecified), the inhibition is -5.11%.

Consider `O=C(c1cc2c(s1)-c1ccccc1OC2)N1CCN(c2ccccc2F)CC1`, for which the inhibition was -5.19%.

In the case of `CCOC(=O)C1=C(c2ccccc2)O/C(=C(/C(=O)OC)C(F)(F)F)S1`, the inhibition is active: 39%.

On to `CCCCN(CC)CCCNC(=O)c1nn(C)c2c1CS(=O)(=O)c1ccccc1-2`, for which the inhibition came out at 15%.

On to `Cc1ccc(C)c(NC(=O)Cn2cc(C(=O)c3ccco3)c3ccccc32)c1`, for which the inhibition is -22.4%.

Take `CCOC(=O)C1CCCN(c2cc(C)nc3c(-c4ccccc4OC)c(C)nn23)C1` (stereo unspecified): the inhibition is -25%.

For the molecule `COc1cccc(Cn2c(CNC(=O)Cc3cccc(C)c3)nc3cccnc32)c1`, the inhibition is -20.7%.

`Cc1ccccc1NC(=O)Cn1c(=O)oc2cc(Br)ccc21`: the inhibition is -6.99%.

As for `COc1ccccc1-c1nc2c(c(SCC(=O)Nc3ccc(C)c(C)c3)n1)Cc1c(CO)cnc(C)c1O2`, the inhibition was 9.99%.

On to `COc1ccc(C2=C(C)C(=NCCCN3CCN(c4cc(C)ccc4C)CC3)NS2(=O)=O)cc1`, for which the inhibition was -1.07%.

With `COc1ccc(N(CC(=O)Nc2cccc(Cl)c2C)S(=O)(=O)c2c(C)nn(C)c2C)cc1`, the inhibition amounted to 2.84%.

Take `Cc1ccc(NC(=O)c2cccc3c2C(=O)N(C2CCCCC2)C3)c(C)c1`: the inhibition is 23.6%.

In the case of `N#Cc1ccccc1Cn1c(=O)n(CCCC(=O)NCc2ccccc2Cl)c(=O)c2ccccc21`, the inhibition was determined as 1.6%.

Take `O=C(Nc1ccc(F)c(Cl)c1)C1CCN(C(=O)c2ccc(F)cc2)CC1`: the inhibition is 0.446%.

Consider `Cc1nc2ccn(Cc3ccco3)c(=O)c2cc1C(=O)NCc1ccccc1F`, for which the inhibition turned out to be 16.1%.

Consider `COc1ccc(Cl)cc1NC(=O)CSC1=Nc2ccccc2C2=NC(CCC(=O)NCc3ccc(F)cc3)C(=O)N12` (stereo unspecified), for which the inhibition is -3.5%.

On to `O=C(NCc1ccccc1Cl)C1CCN(S(=O)(=O)Cc2ccccc2)CC1`, for which the inhibition worked out at 16.8%.

Regarding `CCOC(=O)c1ccc(NC(=O)c2cnn(-c3ccc(C)cc3C)c2C2CCN(C(=O)OC(C)(C)C)CC2)cc1`, the inhibition is -13.7%.

For the molecule `C/C(=N\NC(N)=O)c1cc(Cl)cc(Cl)c1O`, the inhibition was active: 53.6%.

On to `CCOc1cc(C(=O)Nc2ccc3nc(Nc4cccc(Cl)c4)cc(C)c3c2)cc(OCC)c1OCC`, for which the inhibition is -5.35%.

For `CCCCCCNc1nc2c(c(=O)n(C)c(=O)n2C)n1Cc1cccc(C)c1`, the inhibition worked out at 5.54%.

With `Cc1nn2c(C)c(C(=O)N3CCN(c4ccccc4F)CC3)cnc2c1-c1ccc(F)cc1`, the inhibition stood at 8.27%.

With `Cc1nnc(SCc2cc(=O)n3cccc(C)c3n2)s1`, the inhibition is -27.8%.

In the case of `Cc1cccc(CCNC(=O)C2CCC(CNS(=O)(=O)c3ccccc3)CC2)c1` (stereo unspecified), the inhibition came to 14.8%.

As to `COc1cccc(-c2nc(CS(=O)(=O)CC(=O)NCCc3ccc(OC)cc3OC)c(C)o2)c1`, the inhibition was -20.1%.

On to `CCCC(CCC)C(=O)Nc1cccc(-c2nc3cccnc3s2)c1C`, for which the inhibition was determined as 11.2%.

`CCOC(=O)c1scc(-c2ccccc2)c1S(=O)(=O)Nc1ccc(N(C)C)cc1`: the inhibition was -23.8%.

Turning to `CC(C)CN(CCCNC(=O)c1cc(-c2ccc(Br)s2)nc2ccccc12)CC(C)C`, the inhibition was -2.7%.

Regarding `CC(=O)c1ccc(NC(=O)C[n+]2cccc(C)c2)cc1`, the inhibition is active: 36.6%.

As for `O=C(Nc1nonc1-c1ccc(Cl)cc1)c1ccccc1F`, the inhibition is -16.4%.

Take `COc1ccc(CCNC(=O)C2(c3cccs3)CCOCC2)cc1`: the inhibition is -14.6%.

Consider `COc1ccc(N2CC(NC(=O)/C=C\c3ccc4c(c3)OCO4)CC2=O)cc1` (stereo unspecified), for which the inhibition was -7.64%.

For the molecule `COc1ccc(NC(=O)C2CCN(S(=O)(=O)c3ccc4[nH]c(=O)ccc4c3)CC2)cc1Cl`, the inhibition was -1.78%.

For `COc1cc(OC)c(NC(=O)C(c2ccccc2)N2Cc3ccccc3C2=O)cc1Cl` (stereo unspecified), the inhibition stood at 13.5%.

In the case of `CCN(C/C=C/c1ccccc1OC)Cc1ccccc1`, the inhibition was active: 80%.

Take `CCOc1ccc(N2CC(c3nc4ccccc4n3CCCOc3ccccc3OC)CC2=O)cc1` (stereo unspecified): the inhibition was found to be 6.01%.

`CCc1nnc(SCc2cccc(F)c2)c2cc3sc(C)cc3n12`: the inhibition was found to be 6.98%.

As for `CCS(=O)(=O)N1CC(=O)N(c2ccc(Cl)cc2C)C(C)(C(=O)NC2CCCCCC2)C1` (stereo unspecified), the inhibition was -12.9%.

`COc1ccc(Br)cc1Cn1nnc(C(=O)Nc2ccc(C)cc2C)c1N`: the inhibition is 14.6%.

Regarding `CCCCOc1ccc(C(=O)N2CC(=O)Nc3ccc(Br)cc3C2c2ccc(F)cc2)cc1` (stereo unspecified), the inhibition stood at 4.03%.

For `Cc1cc(C)nc(NS(=O)(=O)c2ccc(NC(=O)c3ccccc3O)cc2)n1`, the inhibition turned out to be 4.24%.

With `Cc1cc(C)cc(-n2c(SCC(=O)N3CCCC3)nc3c([nH]c4ccccc43)c2=O)c1`, the inhibition was 4.28%.

In the case of `Cn1c(=O)n(-c2ccc3c(c2)OCO3)c2nc(-c3ccc(Cl)cc3)nc(C(N)=O)c21`, the inhibition was determined as 3.77%.

Regarding `Cc1ccc(NC(=S)N(CCCN2CCCC(C)C2)Cc2ccco2)cc1C` (stereo unspecified), the inhibition is active: 45.7%.

For `Cc1ccccc1NC(=O)CSc1nc(-c2ccc(F)cc2)nc2c1Cc1ccccc1O2`, the inhibition was -9.84%.

Consider `OC(COc1ccc2c(c1)OCO2)CN1CCc2ccccc2C1` (stereo unspecified), for which the inhibition was active: 41.8%.

As to `Cc1nc2ccccc2n1CCc1nc2c3ccccc3nc(SCC(=O)Nc3cccc(C(F)(F)F)c3)n2n1`, the inhibition was -20.7%.

Regarding `CCCCOc1ccc(C(=O)Nc2ccc(S(=O)(=O)Nc3nc(C)cc(C)n3)cc2)cc1`, the inhibition worked out at 7.01%.

For the molecule `Cc1nnc(NCc2ccc(Cl)cc2)c2c1nnn2Cc1ccc(F)cc1`, the inhibition is -1.58%.

Turning to `Cc1ccc2nc(-c3ccc(Cl)c(NC(=O)c4ccc5c(c4)OCCO5)c3)oc2c1`, the inhibition is 6.08%.

For `CC1CCc2nc3ncn(Cc4ccc(Cl)cc4)c(=O)c3cc2C1` (stereo unspecified), the inhibition is 9.05%.

As for `COC(=O)c1ccccc1NC(=O)c1cc(-c2ccc(Cl)cc2)on1`, the inhibition is 13.8%.

`O=C(Cn1nc(-c2ccccc2)c2cnc3ccccc3c21)Nc1ccccc1`: the inhibition is -0.398%.

On to `Cc1ccc(C)c(NC(=O)CN2C(=O)C3(SCC(=O)N3c3ccc(C)c(C)c3)c3ccccc32)c1` (stereo unspecified), for which the inhibition is 9.14%.

In the case of `CCC(=O)N1CCc2cc(CNS(=O)(=O)c3c(C)cc(C)cc3C)ccc21`, the inhibition is 10.8%.

Consider `Cc1ccc(Cn2nnc3sc4c(c3c2=O)CCC(C)C4)cc1` (stereo unspecified), for which the inhibition is 8.37%.

For the molecule `Cc1ccc(Cl)cc1N(C)C(=O)c1noc2c1CCCCC2`, the inhibition came to 4.02%.

Consider `COc1ccccc1NC(=O)C1=C(C)Nc2nc(SCC(=O)c3ccc(C)cc3)nn2C1c1ccccc1C` (stereo unspecified), for which the inhibition amounted to 28%.

As for `O=C(c1ccco1)N1CCC(N2CCN(c3ccccc3)CC2)CC1`, the inhibition was active: 60.8%.

`COc1ccc(-n2cc(C(=O)N(C)c3cc(C)ccc3OC)c3ccccc3c2=O)cc1`: the inhibition worked out at 10.8%.

With `CSCCC(NS(=O)(=O)c1ccc2c(c1)oc(=O)n2C)C(=O)NCc1ccc(F)cc1` (stereo unspecified), the inhibition was 11.9%.

As for `Cc1nn(Cc2noc(C(=O)NCc3cccc(F)c3)n2)c(C)c1Br`, the inhibition came out at 9.05%.

For `COc1ccc(NC(=O)c2sc3nc(C)c(C(=O)Nc4ccc(C)cc4C)c(-c4ccccc4Cl)c3c2N)cc1`, the inhibition was -9.43%.

For `O=C(CN1C(=O)NC(Cc2ccccc2)C1=O)Nc1ccc(F)c(Cl)c1` (stereo unspecified), the inhibition is active: 32.7%.

`CCOc1ccc(NS(=O)(=O)c2ccc3[nH]cc(C(=O)NCCOC)c(=O)c3c2)cc1`: the inhibition was -12%.

Consider `CN(C)CCN(Cc1ccccc1)S(=O)(=O)c1ccc(-c2cc(C(F)(F)F)on2)s1`, for which the inhibition was -2.72%.

As for `CN(C)CCNC(=O)CCCn1c(=O)c2cccn2c2ccccc21`, the inhibition is -16.2%.

With `Cc1ccc(Nc2ncnc3c2cnn3-c2ccc(C)cc2)cc1`, the inhibition is -6.21%.

On to `COc1cc(OC)c(NC(=O)c2cc(C(C)=O)n3ccccc23)cc1Cl`, for which the inhibition is 0.324%.

As to `CC(=O)Nc1ccc(NS(=O)(=O)c2cc(Br)cc3c2N(C(=O)C2CC2)CC3)cc1`, the inhibition was found to be 9.7%.

Turning to `CCOc1ccccc1NC(=O)CSc1ccc2nnc(CCNS(=O)(=O)c3ccccc3)n2n1`, the inhibition is 23.7%.

In the case of `COc1ccc(C)cc1NS(=O)(=O)c1c(C)nc2sc(C)cn2c1=O`, the inhibition was -9.08%.

Take `Brc1ccc(-c2noc(-c3ccccc3)n2)o1`: the inhibition is -1.61%.

One may read the inhibition as the drop in the measured response relative to a control, in per cent.

The values are drawn from PubChem BioAssay AID485344 (National Center for Advancing Translational Sciences (NCATS), 2010).
